Measured values as given in the BET-seq Pho4 binding data (Le et al. 2018).
Some of the results follow. Values were computed here from the reads of four pooled replicates and scatter widely.

target: T1, Pho4 (S. cerevisiae) (UniProt P07270); assay: relative binding free energy (BET-seq); higher = weaker binding; conditions: reference: library average
T1 sequence: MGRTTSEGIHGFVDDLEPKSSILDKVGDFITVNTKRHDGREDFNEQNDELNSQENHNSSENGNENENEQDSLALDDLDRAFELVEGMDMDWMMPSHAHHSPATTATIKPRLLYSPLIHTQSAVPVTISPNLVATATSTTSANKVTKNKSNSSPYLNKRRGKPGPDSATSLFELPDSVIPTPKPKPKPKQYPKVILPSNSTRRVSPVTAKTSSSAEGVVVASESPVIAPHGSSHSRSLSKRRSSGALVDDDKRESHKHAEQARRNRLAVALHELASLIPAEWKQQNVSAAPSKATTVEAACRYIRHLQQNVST

CTTATCACGTGTTTCG was tested. Which “relative binding free energy” value did it give?
Its value is 0.16 kcal/mol.

TGTATCACGTGGCCGG was tested. Which “relative binding free energy” value did it give?
The value was -0.15 kcal/mol.

Which “relative binding free energy” value does the source give for GAGGGCACGTGTCGGT here?
The value was -0.05 kcal/mol.

With AATCGCACGTGGGGAG as the sequence, how does the “relative binding free energy” value read?
Its value is 0.05 kcal/mol.

How did the “relative binding free energy” value turn out when GGGAGCACGTGGGCGG was run?
Its value is -0.11 kcal/mol.

GTGCACACGTGTATTG was tested. Which “relative binding free energy” value did it give?
Its value is 0.23 kcal/mol.

How did the “relative binding free energy” value turn out when GCAGGCACGTGAATGT was run?
Its value is 0.28 kcal/mol.

With ATTTGCACGTGGTGGT as the sequence, how does the “relative binding free energy” value read?
The value was 0.07 kcal/mol.

For ATGAACACGTGTGGAA, which “relative binding free energy” value is on record?
Its value is 0.05 kcal/mol.

For GATTACACGTGTAAGT, which “relative binding free energy” value is on record?
Its value is 0.27 kcal/mol.

With ATGGCCACGTGGGTTA as the sequence, how does the “relative binding free energy” value read?
Its value is -0.23 kcal/mol.

For ATGTGCACGTGCTGAG, which “relative binding free energy” value is on record?
Its value is -0.01 kcal/mol.

For AGTAACACGTGTGGGT, which “relative binding free energy” value is on record?
Its value is 0.12 kcal/mol.

For ATCTTCACGTGTGGCT, which “relative binding free energy” value is on record?
The value was 0.21 kcal/mol.

With GTAGGCACGTGGAGAG as the sequence, how does the “relative binding free energy” value read?
Its value is 0.04 kcal/mol.

For GCCTGCACGTGTGGGT, which “relative binding free energy” value is on record?
Its value is 0.03 kcal/mol.

Which “relative binding free energy” value does the source give for GAGTGCACGTGGACGT here?
Its value is 0.08 kcal/mol.

GAGTGCACGTGAGTCG was tested. Which “relative binding free energy” value did it give?
Its value is 0.2 kcal/mol.

TTAGTCACGTGTAGCG was tested. Which “relative binding free energy” value did it give?
Its value is 0.08 kcal/mol.

How did the “relative binding free energy” value turn out when ATATGCACGTGACGGT was run?
The value was 0.14 kcal/mol.

How did the “relative binding free energy” value turn out when TTTACCACGTGGTGTC was run?
The value was -0.12 kcal/mol.

ACAGACACGTGGGGGG was tested. Which “relative binding free energy” value did it give?
The value was -0.15 kcal/mol.

How did the “relative binding free energy” value turn out when GTGTACACGTGGTTGC was run?
The value was -0.02 kcal/mol.

How did the “relative binding free energy” value turn out when TGCCACACGTGTGGTG was run?
Its value is -0.03 kcal/mol.

Which “relative binding free energy” value does the source give for TATTGCACGTGGTGTC here?
Its value is -0.02 kcal/mol.

Which “relative binding free energy” value does the source give for AAGGGCACGTGGCCTG here?
Its value is -0.21 kcal/mol.

For TGTGCCACGTGTGGTT, which “relative binding free energy” value is on record?
Its value is -0.28 kcal/mol.

For AATATCACGTGAAGTA, which “relative binding free energy” value is on record?
The value was 0.41 kcal/mol.

With CAATTCACGTGCTGGG as the sequence, how does the “relative binding free energy” value read?
The value was 0.31 kcal/mol.

For TTTATCACGTGTGTGC, which “relative binding free energy” value is on record?
The value was 0.2 kcal/mol.

Which “relative binding free energy” value does the source give for GGGCCCACGTGGGGGC here?
The value was -0.15 kcal/mol.

Which “relative binding free energy” value does the source give for TGTTTCACGTGGTCCT here?
Its value is 0.16 kcal/mol.

Which “relative binding free energy” value does the source give for AGTTACACGTGGGAGC here?
The value was 0.07 kcal/mol.

How did the “relative binding free energy” value turn out when GTATACACGTGGGAGC was run?
Its value is 0.02 kcal/mol.

TTAGGCACGTGAAAAG was tested. Which “relative binding free energy” value did it give?
Its value is 0.19 kcal/mol.

CGGAACACGTGTGTGG was tested. Which “relative binding free energy” value did it give?
Its value is 0.08 kcal/mol.

For GGACGCACGTGGTCTG, which “relative binding free energy” value is on record?
Its value is -0.1 kcal/mol.

Which “relative binding free energy” value does the source give for GTATGCACGTGTGCGT here?
Its value is 0.01 kcal/mol.

Which “relative binding free energy” value does the source give for AGCTTCACGTGTTTTT here?
The value was 0.34 kcal/mol.

GTCGGCACGTGAATGT was tested. Which “relative binding free energy” value did it give?
The value was 0.26 kcal/mol.

How did the “relative binding free energy” value turn out when GACCGCACGTGGTGGG was run?
Its value is -0.14 kcal/mol.

Which “relative binding free energy” value does the source give for TCGGGCACGTGGTTGG here?
Its value is -0.06 kcal/mol.

For TGGTTCACGTGGTGGT, which “relative binding free energy” value is on record?
Its value is 0.19 kcal/mol.

With TGATCCACGTGTGAGT as the sequence, how does the “relative binding free energy” value read?
The value was 0.11 kcal/mol.

Which “relative binding free energy” value does the source give for TCGATCACGTGGATTG here?
The value was 0.2 kcal/mol.

With GGGATCACGTGTAATT as the sequence, how does the “relative binding free energy” value read?
Its value is 0.36 kcal/mol.

For TTTCGCACGTGTGGAG, which “relative binding free energy” value is on record?
The value was 0.01 kcal/mol.

GATTTCACGTGTGTCG was tested. Which “relative binding free energy” value did it give?
The value was 0.28 kcal/mol.

For GGGAACACGTGCTTTG, which “relative binding free energy” value is on record?
Its value is 0.21 kcal/mol.

TTTTGCACGTGGAGGG was tested. Which “relative binding free energy” value did it give?
Its value is 0.01 kcal/mol.

Which “relative binding free energy” value does the source give for TTCTTCACGTGGAGTA here?
The value was 0.26 kcal/mol.

How did the “relative binding free energy” value turn out when GCTGCCACGTGTGGTG was run?
Its value is 0.03 kcal/mol.

Which “relative binding free energy” value does the source give for AGGGACACGTGCAGGT here?
Its value is 0.05 kcal/mol.

TTAGGCACGTGTAGCG was tested. Which “relative binding free energy” value did it give?
The value was -0.08 kcal/mol.

With CGGAGCACGTGTGAGG as the sequence, how does the “relative binding free energy” value read?
The value was 0.07 kcal/mol.

For TATGTCACGTGCGTTT, which “relative binding free energy” value is on record?
The value was 0.14 kcal/mol.

Which “relative binding free energy” value does the source give for AGGTACACGTGGTTAA here?
Its value is -0.16 kcal/mol.

TAGCTCACGTGGGAGG was tested. Which “relative binding free energy” value did it give?
The value was 0.19 kcal/mol.

AGAACCACGTGGGGTG was tested. Which “relative binding free energy” value did it give?
Its value is -0.17 kcal/mol.

With ACGTTCACGTGTATTG as the sequence, how does the “relative binding free energy” value read?
The value was 0.14 kcal/mol.

For TACTGCACGTGTTAGT, which “relative binding free energy” value is on record?
Its value is -0.01 kcal/mol.

For TAGGTCACGTGTTCAT, which “relative binding free energy” value is on record?
Its value is 0.05 kcal/mol.

TGTTCCACGTGCGTGT was tested. Which “relative binding free energy” value did it give?
Its value is -0.07 kcal/mol.

Which “relative binding free energy” value does the source give for CAGGGCACGTGGTGGG here?
The value was -0.15 kcal/mol.

Which “relative binding free energy” value does the source give for TGTTGCACGTGTGGTT here?
The value was 0.19 kcal/mol.

TGCGACACGTGTCGGG was tested. Which “relative binding free energy” value did it give?
The value was 0.08 kcal/mol.

How did the “relative binding free energy” value turn out when GGTTGCACGTGTACGG was run?
Its value is 0.07 kcal/mol.

For GGATACACGTGGGGGT, which “relative binding free energy” value is on record?
The value was -0.08 kcal/mol.

For CTTTACACGTGAGTGG, which “relative binding free energy” value is on record?
The value was -0.03 kcal/mol.

With GAGATCACGTGGGTCG as the sequence, how does the “relative binding free energy” value read?
The value was 0.02 kcal/mol.

How did the “relative binding free energy” value turn out when AGGTGCACGTGTGGCT was run?
Its value is 0.04 kcal/mol.

TGGGTCACGTGTGTTG was tested. Which “relative binding free energy” value did it give?
The value was 0.18 kcal/mol.

TTGTACACGTGAATAT was tested. Which “relative binding free energy” value did it give?
The value was 0.09 kcal/mol.

With TCGTGCACGTGGTTAA as the sequence, how does the “relative binding free energy” value read?
The value was -0.12 kcal/mol.

For TGGGTCACGTGCAGAT, which “relative binding free energy” value is on record?
Its value is 0.03 kcal/mol.

TGTTGCACGTGATTTA was tested. Which “relative binding free energy” value did it give?
The value was 0.06 kcal/mol.

GAATGCACGTGAAGGG was tested. Which “relative binding free energy” value did it give?
Its value is 0.3 kcal/mol.

How did the “relative binding free energy” value turn out when AGCCACACGTGTGGGG was run?
The value was 0.03 kcal/mol.

How did the “relative binding free energy” value turn out when TTCTTCACGTGGTAAG was run?
The value was 0.16 kcal/mol.

With GTATTCACGTGAGGTC as the sequence, how does the “relative binding free energy” value read?
Its value is 0.31 kcal/mol.

GGTCGCACGTGTGTGA was tested. Which “relative binding free energy” value did it give?
The value was 0.06 kcal/mol.

How did the “relative binding free energy” value turn out when TTGCTCACGTGTCTTA was run?
Its value is 0.31 kcal/mol.

Which “relative binding free energy” value does the source give for GTTTTCACGTGAGCAT here?
The value was 0.27 kcal/mol.

With GGTGACACGTGGGTTG as the sequence, how does the “relative binding free energy” value read?
The value was -0.14 kcal/mol.

Which “relative binding free energy” value does the source give for CAGAGCACGTGGGTTT here?
Its value is -0.14 kcal/mol.

CTTAACACGTGGTATT was tested. Which “relative binding free energy” value did it give?
The value was -0.11 kcal/mol.

TGGGTCACGTGTCGGC was tested. Which “relative binding free energy” value did it give?
Its value is 0.15 kcal/mol.

With TTTGTCACGTGGTATA as the sequence, how does the “relative binding free energy” value read?
Its value is 0.04 kcal/mol.

TGATACACGTGAAGTT was tested. Which “relative binding free energy” value did it give?
The value was 0.31 kcal/mol.

How did the “relative binding free energy” value turn out when TCTTTCACGTGCTTGT was run?
The value was 0.27 kcal/mol.

For GCGTGCACGTGTGTAT, which “relative binding free energy” value is on record?
Its value is 0.04 kcal/mol.

GGAGTCACGTGAGACG was tested. Which “relative binding free energy” value did it give?
The value was 0.38 kcal/mol.

For TAGGACACGTGGGTGC, which “relative binding free energy” value is on record?
The value was -0.2 kcal/mol.

For GCTGTCACGTGAGGTG, which “relative binding free energy” value is on record?
Its value is 0.28 kcal/mol.

Which “relative binding free energy” value does the source give for TGTGGCACGTGCGTTC here?
The value was -0.16 kcal/mol.

Which “relative binding free energy” value does the source give for TAGGTCACGTGGCGGA here?
The value was -0.02 kcal/mol.

Which “relative binding free energy” value does the source give for ATGAGCACGTGAGGGT here?
The value was 0.18 kcal/mol.

TCCGTCACGTGCGTGT was tested. Which “relative binding free energy” value did it give?
Its value is 0.09 kcal/mol.

How did the “relative binding free energy” value turn out when GAGTACACGTGTCTGG was run?
Its value is -0.01 kcal/mol.

With GGATGCACGTGAAGAT as the sequence, how does the “relative binding free energy” value read?
The value was 0.25 kcal/mol.

ATAAACACGTGGGTTA was tested. Which “relative binding free energy” value did it give?
Its value is -0.21 kcal/mol.

TTTGTCACGTGCTGAT was tested. Which “relative binding free energy” value did it give?
Its value is 0.02 kcal/mol.

Which “relative binding free energy” value does the source give for ATTTGCACGTGATGGT here?
The value was 0.24 kcal/mol.

With ATGAACACGTGATTAT as the sequence, how does the “relative binding free energy” value read?
The value was 0.27 kcal/mol.

With TTGGTCACGTGAAAGT as the sequence, how does the “relative binding free energy” value read?
The value was 0.35 kcal/mol.

With GTCTGCACGTGTTGGG as the sequence, how does the “relative binding free energy” value read?
Its value is 0.09 kcal/mol.

With GACTGCACGTGGGTTT as the sequence, how does the “relative binding free energy” value read?
The value was -0.14 kcal/mol.

For GTTTTCACGTGAAGTA, which “relative binding free energy” value is on record?
Its value is 0.49 kcal/mol.

How did the “relative binding free energy” value turn out when TTGTGCACGTGCGGCG was run?
Its value is -0.06 kcal/mol.

With GCTTACACGTGTGGGG as the sequence, how does the “relative binding free energy” value read?
Its value is 0.06 kcal/mol.

Which “relative binding free energy” value does the source give for TTGTACACGTGTTCGG here?
Its value is 0.03 kcal/mol.

Which “relative binding free energy” value does the source give for GTGACCACGTGAGGTG here?
The value was 0.11 kcal/mol.

For AGCTTCACGTGATTTT, which “relative binding free energy” value is on record?
Its value is 0.36 kcal/mol.

How did the “relative binding free energy” value turn out when TCGCGCACGTGTTGGG was run?
Its value is -0.03 kcal/mol.

TTAATCACGTGGTTGA was tested. Which “relative binding free energy” value did it give?
The value was 0.09 kcal/mol.
